In PubChem BioAssay AID485344 (National Center for Advancing Translational Sciences (NCATS), 2010) one finds inhibition data, which are given here for 61 molecules.

The structures appear in SMILES notation. The campaign covered roughly 340,000 compounds. About 6,900 (2%) were called active. Cut-off read from the data, not from the text of the source: active = inhibition above about 30%; inactive = below that, where a call was filed. This is a selection; strong and weak results do not stand in their true shares. The source gives no active or inactive call for entries shown without one.

What is called inhibition is the drop in the measured response relative to a control, in per cent.

In the assay the target is D(2) dopamine receptor (Homo sapiens) (UniProt P14416). The experiment in a line: HTS Assay for Allosteric Antagonists of the Human D2 Dopamine Receptor: Primary Screen for Antagonists. Note: 0% is about no effect. Conditions: HEK293 TREx D2 cells, calcium flux, dopamine EC80; at 10 µM; stronger effect = higher value. In outline: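 Measurement of antagonist activity uses fluorescent calcium dye in inducible HEK293 T-REx D2 cells: 10 s baseline, compound addition with 180 s read, EC80 dopamine addition with a further 180 s read.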
Sequence of UniProt P14416 (P14416 whole entry, looked up): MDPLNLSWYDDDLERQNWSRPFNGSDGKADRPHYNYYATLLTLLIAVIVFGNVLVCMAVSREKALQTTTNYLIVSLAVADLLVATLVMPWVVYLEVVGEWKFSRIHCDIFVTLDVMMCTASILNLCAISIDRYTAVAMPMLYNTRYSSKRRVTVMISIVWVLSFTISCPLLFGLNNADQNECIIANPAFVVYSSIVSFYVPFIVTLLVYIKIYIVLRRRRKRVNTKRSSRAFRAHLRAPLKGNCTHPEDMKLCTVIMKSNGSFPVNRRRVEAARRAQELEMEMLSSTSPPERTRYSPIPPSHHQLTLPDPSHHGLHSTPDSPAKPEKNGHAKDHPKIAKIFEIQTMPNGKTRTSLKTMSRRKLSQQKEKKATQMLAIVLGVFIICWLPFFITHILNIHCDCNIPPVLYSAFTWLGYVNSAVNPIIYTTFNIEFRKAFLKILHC
For orientation: Calcium flux is commonly read through the fluorescence of an indicator in the cells.
For the molecule `CCN1CCN(c2ccc([N+](=O)[O-])c(Sc3nc4ccccc4[nH]3)c2)CC1`, the inhibition is active: 86.8%.
As for `CN(C)c1ccc(CNS(=O)(=O)c2ccc(-c3cc(C(F)(F)F)on3)s2)cc1`, the inhibition is 4.84%.
As for `CCc1ccc(-n2c(=O)c3c4c(sc3n(Cc3ccccc3C#N)c2=O)CCC4)cc1`, the figure is -11.4%.
As for `COc1ccc(S(=O)(=O)NCCc2nnc3ccc(SCC(=O)Nc4ccccc4C)nn23)cc1`, the figure is -12.5%; as for `COCCn1nnnc1C(c1ccc(O)c(OC)c1)N1CCc2ccccc2C1` (stereo unspecified), active: 43.6%; as for `COC(=O)c1c(C)oc2ccc(N(C(=O)c3ccncc3)S(=O)(=O)c3ccc(OC)cc3)cc12`, -23.9%.
The same measure for `O=C(Nc1cccc(C(F)(F)F)c1)c1ccc2c(c1)nnn2C1CCCC1`: 8.43%.
Take `CC(C)n1c(O)c(N=NC(=O)CNC(=O)c2cccnc2)c2ccccc21`: the inhibition is active: 40.9%.
Regarding `CCCCc1ccc(N/C(N)=N/c2nc(C)cc(C)n2)cc1`, the inhibition was active: 43.3%.
For `COc1ccccc1C1CC(=O)NC(C)=C1C(=O)OC1CCCCCC1` (stereo unspecified), the inhibition came to 20.8%.
As for `COc1ccc(Nc2ncc3c(n2)CCN(Cc2ccccc2C)C3)c(OC)c1`, the inhibition turned out to be 6.31%.
As for `O=C(Cn1c(=O)c2cccn2c2cccnc21)NCCCN1CCN(c2ccc(F)cc2)CC1`, the figure is active: 54%; as for `COc1cc(/C=N/NC(=O)CC2(C)OCCCO2)ccc1OCc1ccc(Cl)cc1Cl`, active: 31%.
Regarding `COc1cc(Cl)c(C)cc1Nc1nc2ccccc2c2nnc(C)n12`, the inhibition is 1.51%.
The same measure for `O=C(NCc1cccnc1)c1nn(-c2ccc(Cl)cc2)nc1CO`: -4.42%; for `COc1ccc(C2CC(=O)N3CN(C4CCCCC4)CSC3=C2C#N)c(OC)c1` (stereo unspecified): -12.4%.
For `CCC(Oc1ccccc1-c1nnc(-c2ccccc2)o1)C(=O)Nc1ccc(C(C)=O)cc1` (stereo unspecified), the inhibition was determined as 2.2%.
As for `COC(=O)c1ccc(NC(=O)CSc2ccc(-c3sc(-c4ccccc4)nc3C)nn2)cc1`, the figure is -8.35%; as for `CCc1ccc(-n2c(=O)c3cccnc3n2CC(=O)NCc2ccccc2)cc1`, -18.7%; as for `COC(=O)C(C)Sc1ccc2nnc(CCNS(=O)(=O)c3ccc(C)cc3)n2n1` (stereo unspecified), 13.3%.
For `Cc1ccc(C)c(NC(=O)n2ncc3cc(Cl)ccc32)c1`, the inhibition is 18.6%.
For `COCCCNC(=O)Cn1cnc2sc(C)c(S(=O)(=O)N3CCC(C)CC3)c2c1=O`, the inhibition is 4.42%.
As for `Cc1ncc(CO)c2c1Oc1nc(-c3ccccc3Cl)nc(SCc3ccccc3F)c1C2`, the figure is 0.173%.
Turning to `COc1ccc(CC(=O)Nc2ccccc2C(=O)N2CCOCC2)cc1`, the inhibition is active: 43.5%.
The same measure for `COc1cccc(OC)c1C(=O)NC(=O)Nc1c(C)cccc1C`: active: 32.1%; for `CC(C)NC(=O)c1ccc(Cn2c(SCC(N)=O)nc3ccccc3c2=O)cc1`: 12.5%.
The same measure for `CCOc1ccc(C2CC(=O)Nc3nc(SCc4ccccc4C)[nH]c(=O)c32)cc1OC` (stereo unspecified): -9.31%.
As for `Cc1ccc(CCNC(=O)c2ccc3nc(N4CCC(C)CC4)sc3c2)cc1`, the figure is 4.01%; as for `O=c1n(Cc2ccccc2Cl)c2ccccc2c2nc(-c3ccccc3)nn12`, 6.93%.
Regarding `Cc1nn2c(=O)cc(COC(=O)c3ccc(NC(=O)COc4ccc(C)c(C)c4)cc3)nc2s1`, the inhibition was -9.87%.
On to `O=C(CCC1CCCC1)N1CCC(N2CCN(c3ccccc3)CC2)CC1`, for which the inhibition is active: 77.2%.
With `CCCCNC(=O)CCCCCn1c(=O)[nH]c2ccccc2c1=O`, the inhibition is -19%.
As for `CCc1ccc(NC(=O)CN2C(=O)c3cccc4cccc2c34)cc1`, the figure is -7.36%.
With `O=C(CCN1CCN(c2ccccc2F)CC1)c1ccc(Br)cc1`, the inhibition was active: 34.1%.
Turning to `Cc1ccc(S(=O)(=O)c2nnn3c2nc(NCc2ccc4c(c2)OCO4)c2sccc23)cc1C`, the inhibition worked out at 2.23%.
For the molecule `COc1ccc(Br)cc1CNC(=O)c1cnc2sc(N3CCC(C)CC3)nn2c1=O`, the inhibition is -6.15%.
Consider `Cc1nc2ccccn2c(=O)c1NC(=O)c1ccc(F)c(F)c1`, for which the inhibition was -3.07%.
On to `Cc1cccc(NC(=O)C2CCCN2S(=O)(=O)c2ccc3nc(-c4ccccc4)[nH]c3c2)c1` (stereo unspecified), for which the inhibition was determined as 27.4%.
The same measure for `COc1cc(Cl)c(NC(=O)c2cc3ccccn3n2)c(OC)c1`: -4.66%; for `Cc1ccc2c(c1)c1c(c(=O)n(-c3ccccc3)c(=O)n1CC(=O)NCC1CCCO1)n2C` (stereo unspecified): 6.02%; for `CCNC(=O)C1CCN(S(=O)(=O)c2ccc3c(c2)CCCN3C(C)=O)CC1`: -3.54%.
As to `CCOc1cc(C(=O)Nc2ccc(-c3cn4cccnc4n3)cc2)cc(OCC)c1OCC`, the inhibition was -16%.
On to `CCCN(CCC)c1ccc(C2N=C(N)Nc3nc4ccccc4n32)cc1` (stereo unspecified), for which the inhibition was -0.245%.
With `O=C(/C=C/c1cccc([N+](=O)[O-])c1)OC1CCCCC1=O` (stereo unspecified), the inhibition was active: 31.1%.
The same measure for `O=C(NCc1ccccc1)c1ccc(NC(=O)N2CC3CCCN3c3ccccc32)cc1` (stereo unspecified): -1.85%; for `Cn1c(=O)oc2cc(S(=O)(=O)CCC(=O)N3CCN(c4cccc(Cl)c4)CC3)ccc21`: 3.88%.
As for `CC(=O)c1ccc(NC(=O)c2ccc3c(c2)N(Cc2cccc(Cl)c2)C(=O)c2ccccc2S3=O)cc1` (stereo unspecified), the figure is -24.3%.
The same measure for `Cc1ccccc1-c1nc(CN2CCC(C(=O)NCc3ccc(F)cc3)CC2)c(C)o1`: 5.32%; for `CCOC(=O)c1c(C)n(-c2ccccc2)c2ccc(OC(=O)COc3ccc(Cl)cc3)cc12`: 7.03%.
As for `CC(=O)N1CCOc2ccc(S(=O)(=O)N3CCC(C(=O)Nc4cc(C)cc(C)c4)CC3)cc21`, the inhibition was active: 52%.
For `Cc1cc(Nc2ccccc2C)n2nc(Cc3ccc(Cl)cc3)nc2n1`, the inhibition is -0.983%.
Take `Cc1ccn2c(Nc3ccc4c(c3)OCCO4)c(-c3ccc(C)o3)nc2c1`: the inhibition is -7.82%.
The same measure for `O=[N+]([O-])c1ccccc1NC1CCN(Cc2ccccc2)CC1`: active: 39.2%; for `Cc1ccccc1OCCSc1nc2ccc(NC(=O)c3cccc(F)c3)cc2s1`: 9.9%; for `CN(C)CCCNc1cc(N2CCN(C3CCCCC3)CC2)c2noc3c2c1C(=O)c1ccccc1-3`: 13.4%.
On to `COc1cc2ncc3c(-c4ccc(C)cc4)nn(-c4ccc(F)cc4F)c3c2cc1OC`, for which the inhibition was determined as 8.81%.
On to `CCC(C)(C)NC(=O)C(c1cccn1C)N(Cc1ccc(OC)cc1)C(=O)Cn1nnc2ccccc21` (stereo unspecified), for which the inhibition is active: 30.5%.
For `CC1=C(c2ccc(F)cc2)S(=O)(=O)N=C1N1CCC(C(=O)NCCc2cccc(C)c2)CC1`, the inhibition was -5.46%.
As to `CCN1CCCC1CNC(=O)c1cc2c(OC)c(OC)c(OC)cc2[nH]1` (stereo unspecified), the inhibition is active: 82.7%.
For `COc1cccc(-c2nc(CS(=O)(=O)CC(=O)NCc3cccc(Cl)c3)c(C)o2)c1`, the inhibition is 5.47%.
As for `Cc1ccc(CCNC(=O)C2CCCN(c3nnc(C)c4c(C)n(-c5ccccc5)nc34)C2)cc1` (stereo unspecified), the inhibition was -8.88%.
